Data on 57 sequences can be found in the supplement of paper PMC11417369.

± gives the standard deviation of the averaged measurements. This is one part of the list.

This test concerns PfAP2-LT AP2 domain (GST-tagged). Kind of test: gcPBM binding intensity (ln(normalized median fluorescence intensity)); higher = stronger DNA binding. In a few lines:
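Binding of GST-tagged P. falciparum DNA-binding domains, expressed in E. coli and used at about 25 μg on average, was carried out for 1 h in 1× PBS containing 1% milk, 0.2 mg/ml BSA, 0.5% salmon testes DNA and 0.03% Triton X-100. The target was an Agilent 4 × 180k array of primer-extended double-stranded 36-bp intergenic genomic probes plus negative controls, read with Alexa488 anti-GST antibody at 488 nm. Binding intensity is the highest Masliner-normalised natural-log median intensity across replicate spots of either probe orientation.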
As to “ATGATTATACAAAATATACACACGTGGACACAAATA [CACACA_site8304]”, the “gcPBM binding intensity (ln)” value is 9.33 ± 0.44.
As to “TGATAATAAGCATACACACACACACTAAAAAAAAAA [CACACA_site6478]”, the “gcPBM binding intensity (ln)” value came to 9.94 ± 0.38.
Take “TACCTATATACATACACACACATATAACCAATGTAG [CACACA_site7096]”: the “gcPBM binding intensity (ln)” value amounted to 9.36 ± 0.28.
Then “AGAAGATTAAAAATTGCACACAAAAATATATTTTCT [CACACA_site8359]”, with 8.88 ± 0.4; and “TAATAAATAAAAACATGTACATATATACATATATGT [XGTACX_site485]”, with 8.76 ± 0.36.
For “TAATCATTTTTAAATTGTACAATTTATATAATAAGT [XGTACX_site6081]” the value was 8.48 ± 0.48; for “TTGATATACTATGACACATGCAAATAAAACATTATA [TGCATGCA_site535]”, 8.78 ± 0.25.
As for “TTGTATTGTATATGCACACATAGAACACTTTTTTTT [CACACA_site4133]”, the “gcPBM binding intensity (ln)” value came to 8.89 ± 0.4.
On to “TAAATTTTGTTTAGCACACACACATACATACATACA [CACACA_site3155]”, for which the “gcPBM binding intensity (ln)” value was 9.66 ± 0.39.
Then “TATTTTTTAAGTGAACATTTGTTATTATATTCTTAT [GTGCAC_negctrl_site172]”, with 8.63 ± 0.38.
For “TATATCTGTATCATTACACACATGTATACTTATTTG [CACACA_site6134]”, the “gcPBM binding intensity (ln)” value came out at 9.35 ± 0.38.
For the sequence “TATGGGGAACTATAATGTACGTATTCCTCATATATA [XGTACX_site338]”, the “gcPBM binding intensity (ln)” value amounted to 8.89 ± 0.38.
With “GATGATACACAGGTGTTGCACTTAAATGCAGTTCTT [GTGCAC_site9627]”, the “gcPBM binding intensity (ln)” value is 8.88 ± 0.41.
As for “ATTAAAATAGAAAAAAAAAAAAAAAAAAAAAAAAAA [CACACA_negctrl_site1117]”, the “gcPBM binding intensity (ln)” value amounted to 8.04 ± 0.36.
Then “TTTTCAAAATGTTGTACACACAAAAAAAAAAAAAAA [CACACA_site1550]”, with 8.71 ± 0.45; and “ATGTATATGTTTTGTTGTACAAGTATTTTATATCTT [XGTACX_site3588]”, with 9 ± 0.42.
For TTTCAATTTATCAGTGTGCACAAAAATAAAATAAAA the value was 8.93 ± 0.65; for “TAAATACAGACATATACACACATATATATATATATA [CACACA_site4382]”, 9.925 ± 0.0071; for “GAATATTAAACAAACACACACACATATATATATATA [CACACA_site3382]”, 10.1 ± 0.2.
On to “AGTAGTCTGGAGAAAAGTACACAGTATCTGGTAACC [XGTACX_site2035]”, for which the “gcPBM binding intensity (ln)” value was 8.87 ± 0.49.
Take “AATATATACATACATACATGCATACATATATATAAC [TGCATGCA_site371]”: the “gcPBM binding intensity (ln)” value turned out to be 9 ± 0.37.
For the sequence “TTTAAATATATTCAATCACACACATTCGTTTTTTTT [CACACA_site7962]”, the “gcPBM binding intensity (ln)” value turned out to be 8.96 ± 0.44.
On to “GTATAAAAATTATATACACACAACAGAATTACATAT [CACACA_site133]”, for which the “gcPBM binding intensity (ln)” value stood at 9.12 ± 0.42.
In the case of “GTTTATTGATTTATTTGTACTTATATATATATTTCA [XGTACX_site5098]”, the “gcPBM binding intensity (ln)” value stood at 9.04 ± 0.45.
Then “AATAAAAATATAGGCACACATATTAAAATGAACTTA [CACACA_site830]”, with 8.9 ± 0.5; and “TTATGTATCCTTATAAGAAAAAAAAAAAAATTCTCT [CACACA_negctrl_site1183]”, with 8.21 ± 0.4; and “TAAAGATGTATTTATTCACACATCTCATATAATGAA [CACACA_site5229]”, with 8.49 ± 0.39.
Then “TGAATTTAGATATATACACACAAAAGTAAATACAAT [CACACA_site5548]”, with 9.1 ± 0.47; and “TATAAATAGATATATACACACATTTTTAATGATAAA [CACACA_site7299]”, with 8.78 ± 0.45.
For TTTTTATTTTTTCAAGTGCATATTTTTGGCTTCTTA the value was 8.57 ± 0.54.
Consider “TATATATATATATTACGTTTTAAATATACTAATCTT [CACACA_negctrl_site32]”, for which the “gcPBM binding intensity (ln)” value stood at 8.88 ± 0.29.
Regarding “AAAAAAAAAAAAAATACACACATATATATATATATA [CACACA_site85]”, the “gcPBM binding intensity (ln)” value amounted to 9.96 ± 0.085.
Regarding “CTTTTTCCTTTATATTGTACATAATTAAAGATAATA [XGTACX_site7014]”, the “gcPBM binding intensity (ln)” value is 8.36 ± 0.35.
As for “TAAATTTATATATAGGTGCGCAATTTGATAATAGTT [GTGCAC_site9783]”, the “gcPBM binding intensity (ln)” value turned out to be 9.04 ± 0.39.
For “AAAAAAAAAAGACACACACACAATAGTATATAAATC [CACACA_site6579]” the value was 9.85 ± 0.26.
For “TTTTTGTATGCTTCCCGATTACATTATGTTGTAAAT [CACACA_negctrl_site227]” the value was 8.95 ± 0.47.
With “ATTTATGTTATATATACACACACAAAAGAAAAAAAA [CACACA_site8977]”, the “gcPBM binding intensity (ln)” value turned out to be 9.21 ± 0.36.
Then “TCCTACATATAAAAATGTACCCATTGTTTTTTTTTT [XGTACX_site7205]”, with 8.54 ± 0.64; and “TATATATATATATATACACACATATACATATTGTTT [CACACA_site3499]”, with 9.71 ± 0.33.
For the sequence “TTGTGTTAACTACCATGTACTTATACATCATAGGAA [XGTACX_site6627]”, the “gcPBM binding intensity (ln)” value came out at 8.57 ± 0.48.
For “AATGTATATAGAAACATGCACACGTGGTTGTATATA [CACACA_site3278]” the value was 9.16 ± 0.42.
On to “TATTGCCCTGGACACACACACATATATATATATATA [CACACA_site5389]”, for which the “gcPBM binding intensity (ln)” value is 10.2 ± 0.064.
Turning to “ATAATATAAACATACACACACACATCTATATTTATA [CACACA_site7381]”, the “gcPBM binding intensity (ln)” value came to 9.92 ± 0.071.
Take “TTATGTTATATAAAAAGTACAAATTTTTTTTAATTA [XGTACX_site3435]”: the “gcPBM binding intensity (ln)” value was found to be 8.22 ± 0.54.
Then “ATTATTATTATATATGCATGTAAAATATTAAAGTAC [TGCATGCA_site914]”, with 8.68 ± 0.38; and “ATACATATAAAAAAGTGTACATATTAAAATAAGTAT [XGTACX_site1310]”, with 9.1 ± 0.4.
Then “AATGCAAATAATAAAACACACAAAAAAAAGAAAAAA [CACACA_site1184]”, with 9.1 ± 0.56; and “ATATCCGTTCAAAGATGTACATATATATTCTATAGA [XGTACX_site5354]”, with 8.71 ± 0.47.
As to “TCATACAAACCTATTTGTACATAAGTATAATATATA [XGTACX_site4284]”, the “gcPBM binding intensity (ln)” value was determined as 8.66 ± 0.38.
Regarding “AAGTATTACAACCACACACACACCTATATATCATAG [CACACA_site7878]”, the “gcPBM binding intensity (ln)” value worked out at 9.99 ± 0.25.
For “ATCTTTTACGAATACACACACATAAAGAAAAAAAAA [CACACA_site1331]” the value was 9.2 ± 0.37; for “AAGGATATGAAAAGTAGTACAAAATTTAGAACACCC [XGTACX_site4758]”, 9.12 ± 0.46; for “ATTATATTCTCCTTCACACACAAAAATATTTCATCA [CACACA_site5326]”, 9.13 ± 0.45.
For “TTACGATTAAATATAACACACAACATATTTTTAATA [CACACA_site2967]” the value was 8.75 ± 0.47.
“CACAAAAATTTATACACACACATATATAATATATAT [CACACA_site152]”: the “gcPBM binding intensity (ln)” value is 9.33 ± 0.4.
Then “ATTTCAAATTAATTTACACACTTCATACTAAAAGAC [CACACA_site3176]”, with 8.71 ± 0.4.
As to “TTGATATATAATAATACACACTTACATAATTAATTA [CACACA_site4320]”, the “gcPBM binding intensity (ln)” value worked out at 8.7 ± 0.42.
